Several values for one entry are separate records, joined by “and”; a condition that tells them apart may be missing. Identical values can stand only once.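 Method: 48-hour compound exposure of cells in 96-well plates, five concentrations, linear interpolation of endpoints. At the GI50, growth is halved. TGI denotes the concentration required for complete inhibition of growth.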
system: NCI-H322M lung; experiment: inhibition of tumour cell growth, NCI panel, 48 h

Row | SMILES | TGI | GI50 [µM]
1 | CN1C(=O)c2cccc3c([N+](=O)[O-])ccc(c23)C1=O | 29.2 µM | 
2 | Nc1nc(N)c2ncn(Cc3c(Cl)cccc3Cl)c2n1 | > 100 µM | 
3 | COc1ccc(C(=O)N=C2N(c3ccccc3)C(=Nc3ccccc3)C(=Nc3ccccc3)N2c2ccccc2)cc1 | > 100 µM | 
4 | CCCC/C=C1\CCC(CN2CCOCC2)C1=O (centres undefined) | 30.8 µM | 
5 | S=C(S)NCCCn1ccnc1 | > 100 µM | 
6 | C/C=C1/CN2CC[C@@H]3c4ccccc4N4[C@H](C(=O)OC)[C@H]1C[C@H]2[C@]34/C=C/C1=COC[C@@H]2[C@H]1C[C@H]1c3c(c4ccccc4n3C)C[C@@H]2N1C | 7.69 µM | 
7 | Nc1nc(Cl)cc(NCCCCO)n1 | > 100 µM | 
8 | CN1CCN(c2ccc3nc(-c4ccc5nc(-c6ccc(C(F)(F)F)cc6)[nH]c5c4)[nH]c3c2)CC1 | 3.77 µM | 1.92
9 | CCCN(CCC)c1ccc(C=O)c(OC)c1 | > 100 µM | 47.1
10 | CCCN(CCC)C(=O)Cc1c2n(c3ccccc13)CCCc1ccccc1-2 | 28.4 µM | 
11 | Cc1cc(Cl)ccc1N1C(=O)C(=O)C(c2nc3ccccc3s2)/C(=N\NC(=O)c2ccccc2O)C1=O (centres undefined) | > 100 µM | 
12 | C#CCCCCC#CC1CCCC1C1=CC(=O)c2ccccc21 (centres undefined) | 26.4 µM | 
13 | CC(=O)OC1CC(C)c2c1ncnc2N1CCN(C(=O)OC(C)(C)C)CC1 (centres undefined) | > 100 µM | 47.2
14 | COc1ccc(-n2nc(C)c3c(Nc4ccc(NC(=O)Nc5cc(C(F)(F)F)ccc5F)cc4)ncnc32)cc1 | 8.6 µM | 2.55
15 | COC(=O)C(=O)C(C(=O)C(=O)Nc1ccc([N+](=O)[O-])cc1C#N)c1nc2ccc([N+](=O)[O-])cc2[nH]c1=O (centres undefined) | > 100 µM | 
16 | CN1C(=O)NC2(O)c3ccccc3C(=O)C12O (centres undefined) | > 100 µM | 
17 | COc1ccccc1OCc1nnc(SCC(=O)O)n1-c1ccccc1 | > 100 µM | 
18 | CNC1=C(Br)C(=O)C2=C(C1=O)C1C3=C(C(=O)C=CC3=O)C2c2ccccc21 (centres undefined) | 38.4 µM | 19.5
19 | COc1cc2c(C#N)n3c(c2cc1OC)C(=O)C(c1ccccc1)Oc1ccccc1-3 (centres undefined) | > 100 µM | > 100
20 | Cc1nc(SCC(=O)Nc2ccccc2)c2sc(=S)n(-c3ccccc3)c2n1 | > 10 µM | 
21 | CCCCCCCCCCSS(=O)(=O)c1ccc(C)cc1 | 40.8 µM | 
22 | CCC1N2CCCCC2[C@@H]2c3[nH]c4ccccc4c3CCN12 (some centres undefined) | > 100 µM | 
23 | COc1ccc(/C=C2/CCOC2=O)cc1 | > 100 µM | > 100
24 | COc1cccc2c1[C@H](OC)[C@]13O[C@@]1(C2=O)[C@H](O)[C@H](C)[C@@](O)(C(=O)[C@@H]1O[C@H]1C)[C@@H]3O | 5.02 µM | 

Row | SMILES | TGI | GI50 [µM]
25 | COc1ccc(CNCCCN2C(=O)c3ccc4c5c(ccc(c35)C2=O)C(=O)N(CCCNCCCCNCCCN)C4=O)c(OC)c1OC | 11.8 µM | 2.15
26 | O=c1oc2ccccc2c(O)c1C(c1ccc([N+](=O)[O-])cc1)c1c(O)c2ccccc2oc1=O | > 100 µM | 
27 | CCN(CC)CC1CCCCN1CC(=O)N1c2ccc(Br)cc2C(=O)Nc2cccnc21 (centres undefined) | > 100 µM | 
28 | c1csc(-c2cc(-c3ccsc3)c(-c3cccs3)s2)c1 | > 100 µM | 
29 | CCOC(=O)c1c(SCC#N)n(-c2ccccc2)c(=S)n(-c2ccccc2)c1=O | > 100 µM | 
30 | CCOC(=O)c1c2ccccc2n2c(=O)n(C)nnc12 | > 100 µM | 
31 | O=c1cc(-c2ccccc2)oc2cc(OCc3cn(Cc4ccc(F)cc4)nn3)cc(O)c12 | > 100 µM | > 100
32 | Cc1ccc(-c2n[nH]c(CC#N)n2)cc1 | > 100 µM | 
33 | CNC(=O)OC(C)CN1c2ccccc2Sc2ccccc21 (centres undefined) | > 100 µM | 
34 | CC(C)[C@H](COC(C)(C)C)N=CN1CSc2ccccc21 | 82 µM | 
35 | Cn1c2nc(=Nc3ccc(Cl)cc3)n3ccc4ccccc4c3c2c(=O)n1-c1ccccc1 | > 100 µM | 
36 | COc1cc2c(cc1OC)[C@]1(O)C(=O)c3ccc4c(c3O[C@@H]1CO2)C[C@H](C(C)(C)O)O4 | > 100 µM | 
37 | COc1cc2c(cc1OCCN1C(=O)c3cccc4cccc(c34)C1=O)N=C[C@@H]1CCCN1C2=O | 50 µM and > 100 µM | 42.2
38 | O=c1cc2oc3ccc4ccccc4c3cc-2c(=O)[nH]1 | 28.5 µM | 
39 | COC(=O)[C@@H]1C[C@H]2[C@H](c3ccccc3Br)[C@@H](OC(C)=O)[C@@H](OCc3ccccc3)ON2O1 | > 100 µM | 
40 | O=C1c2ccccc2C(=O)c2[nH]c(=O)c(/C=N/Nc3ccc([N+](=O)[O-])cc3)nc21 | 4 µM | 
41 | O=C(Oc1ccccc1Cl)c1cccnc1Nc1ccnc(C(F)(F)F)c1 | 31.5 µM | 16.2
42 | CO/N=C(\COc1ccc2c(=O)cc(-c3ccccc3)oc2c1)c1ccc(OC)cc1 | > 100 µM | > 100
43 | Cc1ccc(-c2n[nH]c(=O)n2N)cc1 | > 100 µM | 
44 | O=C(/C=C/c1ccc(O)c(O)c1)Oc1ccccc1 | 76.1 µM | 
45 | COc1cc([C@@H]2c3cc4c(cc3[C@@H](NC(=O)c3ccc(C(C)=O)cc3)C3COC(=O)[C@@H]32)OCO4)cc(OC)c1O (some centres undefined) | 75.6 µM | 
46 | COc1cccc(C(=O)O)c1Cc1cccc2ccccc12 | > 100 µM | 
47 | CN1CCN(c2ccc(NC3=C(Cl)C(=O)c4ncccc4C3=O)cc2C(F)(F)F)CC1 | 28.6 µM | 15.3
48 | COC(=O)c1ccc(/C=N/c2cc(C)nn2-c2ccccc2)cc1 | > 100 µM | 

Row | SMILES | TGI | GI50 [µM]
49 | N=c1nc(N)nc(N)n1-c1ccc(S(N)(=O)=O)cc1 | > 100 µM | 
50 | COc1ccc(/C=C/c2cc(=O)cc(/C=C/c3ccc(OC)c(O)c3)o2)cc1O | 12.6 µM | 
51 | CC(=O)[CH-]C(=O)c1ccccc1.CC(=O)[CH-]C(=O)c1ccccc1.CC(C)CCCC(C)[C@H]1CCC2[C@@H]3CCC4C[C@@H]([O-])CC[C@]4(C)C3CC[C@@]21C.CC(C)CCCC(C)[C@H]1CCC2[C@@H]3CCC4C[C@@H]([O-])CC[C@]4(C)C3CC[C@@]21C.Cl.[Ti+4] (some centres undefined) | > 25 µM | > 25
52 | O=C1c2ccccc2C(=O)c2c1c(NCCNCCO)c1cc[nH]c1c2NCCNCCO | 9.44 µM | 2.26
53 | CC(=O)[CH-]C(=O)c1ccccc1.CC(=O)[CH-]C(=O)c1ccccc1.[O-]c1ccc(O)cc1.[O-]c1ccc(O)cc1.[Ti+4] | > 100 µM | 32.4
54 | O=c1c2ccccc2c(C=NCCNCCO)c2oc3ccccc3n12 | 8.92 µM | 2.87
55 | CSc1ccc2c(cc1=O)C(NC(=O)c1cc(O)c(OC(=O)O)c(O)c1)CCc1cc(O)c(O)c(O)c1-2 (centres undefined) | > 9 µM | 
56 | Cc1cc(Cl)ccc1OCC(=O)Oc1c(Cl)c(Cl)c(Cl)c(Cl)c1Cl | 55.2 µM | 
57 | CC(C)Nc1n[nH]c(=O)n1C(C)C | > 100 µM | 
58 | CC(=O)C1CC2(c3ccccc3)C(=O)c3ccccc3N2O1 (centres undefined) | > 100 µM | 
59 | Cc1ccc(S(=O)(=O)NC(C)C(=O)O)cc1 (centres undefined) | > 100 µM | 
60 | Cc1occc1C(=S)Nc1ccc(Cl)c(C(=O)OCC2CC2)c1 | > 100 µM | 
61 | NCC(=O)OCN1C(=O)C2C3C=CC(C2C1=O)C1C2C(=O)N(COC(=O)CN)C(=O)C2C31 (centres undefined) | > 100 µM | 
62 | COc1ccc2c(CCNS(=O)(=O)c3ccccc3)c(C(C)=O)[nH]c2c1[N+](=O)[O-] | > 100 µM | 
63 | C/C(CC(=O)Nc1ccc(C)cc1)=N\NC(N)=S | > 100 µM | 
64 | CCCCn1c(=O)c(/C=C/C(=O)/C=C/c2ccc(O)c(OC)c2)cc2ccc(Cl)cc21 | 4.56 µM | 2.01
65 | CCOc1ccccc1N=C(NC(=O)CC)SC | > 100 µM | > 100
66 | COc1cc2c(c(OC)c1OC)C(=O)c1c-2n(CCCN)c(=O)c2cc([N+](=O)[O-])ccc12 | 3.12 µM | 0.73
67 | C=CC1(C)/C(=N\O)C(C)(CC)C(=O)N1O (centres undefined) | > 100 µM | 
68 | N#C/C(=C/c1cccs1)c1cccs1 | > 100 µM | > 100
69 | COc1cc(C(C)c2cc3c(cc2OCCOCCOc2cc4c(cc2C(C)c2cc(OC)c(OC)c(OC)c2)OCO4)OCO3)cc(OC)c1OC (centres undefined) | > 10 µM | 
70 | COC(=O)C1=C(C(=O)OC)C2(/N=C(\Nc3ccccc3)c3ccccc3)N(c3ccc(OC)cc3)CC(c3ccccc3)N2O1 (centres undefined) | > 100 µM | 
71 | O=C(Cc1ccccc1)NN1C(=O)C(Cl)C1c1cc(Br)cc(Br)c1O (centres undefined) | 46.8 µM | 
72 | O=[N+]([O-])/C=C/c1cccc(F)c1 | 34.3 µM | 

Row | SMILES | TGI | GI50 [µM]
73 | Cc1c(Cl)c(S(N)(=O)=O)cc(S(N)(=O)=O)c1NC(=O)c1ccc(Cl)cc1 | > 100 µM | 
74 | C[C@@H]1O[C@@H]2OCC[C@@H]2C2=C1C(=O)c1ccccc1C2=O | 29 µM | 
75 | COc1ccc(-c2ccc(=O)oc2-c2cc(OC)c(OC)c(OC)c2)cc1O | > 100 µM | > 100
76 | CC1(C)C2CCC1(C)C(NC(=O)CCN1CCOCC1)C2 (centres undefined) | > 100 µM | 
77 | Clc1ccc(OCc2nnc(CCCCCCCCc3nnc(COc4ccc(Cl)cc4)o3)o2)cc1 | > 100 µM | 
78 | COc1ncnc2c1ncn2C/C(Br)=C(\Br)CCl | 24.9 µM | 12.4
79 | COc1cccc(NC(=O)c2c(SC)n[nH]c2N)c1 | > 100 µM | 
80 | C=C(Cl)C(Br)(CCl)CCC(Cl)C(C)C (centres undefined) (tested in a mixture with another compound) | 15.3 µM | 
81 | CCC1(c2ccncc2)CCC(=O)NC1=O (centres undefined) | > 100 µM | 
82 | CCCCCCCCOC(=O)c1cc(O)c(O)c(O)c1 | 30.7 µM | 5.12
83 | Cc1cc2cc(Oc3ccnc(Nc4cccc(CS(=O)(=O)NCCN(C)C)c4)n3)ccc2[nH]1 | 25.2 µM | 12.2
84 | O=C1c2ccccc2N2OC3C4CCC(C4)C3C12c1ccccc1 (centres undefined) | > 100 µM | 
85 | COc1cc(C)c(N(C)C(=O)CN(C)C)cc1Nc1nc(Nc2cccc(F)c2C(N)=O)c2cc[nH]c2n1 | > 25 µM | > 22.3
86 | C[C@H](C(=O)N1C(=O)O[C@@H](c2ccccc2)[C@H]1C)[C@H](c1ccccc1)N(Cc1ccccc1)OC(=O)c1ccccc1 | 41.6 µM | 
87 | C=C(/C=C/C=C(/CCC=C(C)C)COC(C)=O)[C@@H]1CC[C@]2([C@H](CCCO)/C(=C(/C)C=O)CC[C@]2(C)O)[C@@H]1O | 32.2 µM | 
88 | COc1cccc(N2CCc3c(C)c(C#N)c4nc5ccccc5n4c32)c1 | > 100 µM | 
89 | c1ccc(CN2CCC3(CC2)ONC2=NCCN23)cc1 | > 100 µM | > 100
90 | CCCCCCCCCCCCCCCC[N+](C)(C)C | 11.4 µM | 2.72
91 | CCCCCCCCCCCCCCCCCCNc1ccn(C2OC(COP(=O)(O)OCCCCCCCCCCCCCCCC)C(O)C2O)c(=O)n1 (centres undefined) | > 100 µM | 
92 | COc1cc2c(cc1OC)C(C1(O)CCCCC1)NCC2 (centres undefined) | > 100 µM | 
93 | O=C(/C=C/c1ccccc1)c1ccc(O)c(CN2CCN(c3cc4c(cc3F)c(=O)c(C(=O)O)cn4C3CC3)CC2)c1 | 31.4 µM | 1.69
94 | O=C(CN1C(=O)c2ccccc2C1=O)OC1C=CCCC1 (centres undefined) | > 100 µM | 
95 | Nc1nonc1-c1noc(-c2nonc2N)[n+]1[O-] | > 100 µM | 

Source: PubChem BioAssay (NCI)
